Reference: PubChem BioAssay AID2451 (National Center for Advancing Translational Sciences (NCATS), 2010)
The whole screen tested about 290,000 compounds, of which about 2,100 (0.72%) were called active. The inconclusive results got no clear call from the source; some entries with a clear call stand among them for comparison. Calls follow the shape of the dose curve; as a rule, active = well fitted inhibition curve with a large enough effect; inconclusive = small, poorly fitted or top-dose-only effect, or effect the other way; inactive = flat fitted curve, though single readings scatter. Potencies of inconclusive entries are doubtful fits and often do not repeat. Some compounds were tested as several samples or in several runs, with calls that do not always agree.

What follows are molecules tested against Fructose-bisphosphate aldolase (Giardia intestinalis (strain ATCC 50803 / WB clone C6)) (UniProt A8B2U2) (assay: qHTS Assay for Inhibitors of Fructose-1,6-bisphosphate Aldolase from Giardia Lamblia). Conditions: purified Giardia FBPA; activity, negative = inhibition: at 59.6 µM (top of the series) unless noted.
How it was run: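 40 nM FBPA preincubated 10 min at RT with compound (up to 57.5 uM final), then substrate plus GAPDH/TPI/NAD/arsenate coupling and diaphorase/resazurin added. Fluorescence read after 20 min at RT, 525/598 nm.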
% is scaled to controls: 0 for no effect and ±100 for the full control effect; potency is read from the fitted curve at half-maximal effect; tags tell the direction and shape of the fitted curve.
Also: nearly all actives have a fitted effect of over 55% in size.

Chain of UniProt A8B2U2 (A8B2U2 whole entry, looked up): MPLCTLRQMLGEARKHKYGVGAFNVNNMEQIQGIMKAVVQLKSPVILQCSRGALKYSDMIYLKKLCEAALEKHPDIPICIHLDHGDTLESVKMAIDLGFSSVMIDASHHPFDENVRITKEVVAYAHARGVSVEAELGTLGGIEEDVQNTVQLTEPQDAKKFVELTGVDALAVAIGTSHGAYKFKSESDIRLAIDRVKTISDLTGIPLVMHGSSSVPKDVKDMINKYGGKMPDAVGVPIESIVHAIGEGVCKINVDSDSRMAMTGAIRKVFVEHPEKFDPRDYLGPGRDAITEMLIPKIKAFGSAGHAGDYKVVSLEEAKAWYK

**Q.** With `NNc1ncnc2sc3c(c12)CCC3` as the molecule, how does the Potency read?
**A.** inconclusive: 17.7 µM [inhibitor, single point]

**Q.** With `COc1ccccc1C(=O)N1CCC(N2CCN(c3ccccc3OC)CC2)CC1` as the molecule, how does the Potency read?
**A.** inconclusive: 12.6 µM [inhibitor, partial curve]

**Q.** `Cc1ccc(C(=O)COC(=O)c2ccc3c(c2)C(=O)N(c2cccc4ncccc24)C3=O)cc1` was tested. Which Potency did it give?
**A.** inactive

**Q.** With `O=C1/C(=C/c2ccco2)SC(=S)N1CC1CCCO1` (stereo unspecified) as the molecule, how does the Potency read?
**A.** inconclusive: 15.8 µM [inhibitor, single point]

**Q.** With `Cc1nnc(SCC(=O)c2ccc([N+](=O)[O-])cc2)s1` as the molecule, how does the Potency read?
**A.** inconclusive: 17.7 µM [inhibitor, single point]

**Q.** `Cc1cccc(CSc2nc3c(cc2C#N)CCC3)c1` was tested. Which Potency did it give?
**A.** inactive

**Q.** For `CCOc1cccc(/C=C2\NC(=S)N(c3ccccc3)C2=O)c1O`, which Potency is on record?
**A.** inconclusive: 19.9 µM [inhibitor, single point]

**Q.** Which Potency does the source give for `CN1CCN(c2nc(-c3ccc(N(C)C)cc3)nc3ccccc23)CC1` here?
**A.** inconclusive: 17.7 µM [inhibitor, partial curve]

**Q.** `OCCN1CCN(CCSc2ccccc2)CC1` was tested. Which Potency did it give?
**A.** inconclusive: 31.5 µM [inhibitor, single point]

**Q.** `O=C(NCC1COc2ccccc2O1)c1ccc(NC(=O)C(c2ccccc2)c2ccccc2)cc1` (stereo unspecified) was tested. Which Potency did it give?
**A.** inactive

**Q.** `CC1(OC(=O)C2CCCC2)C(=O)C=C2C=C(c3ccsc3)N(Cc3ccco3)C=C2C1=O` (stereo unspecified) was tested. Which Potency did it give?
**A.** inconclusive: 1.77 µM [inhibitor, full curve, poor fit]

**Q.** With `COC(=O)c1sc(NC(=S)NC(=O)c2ccccc2C)nc1C` as the molecule, how does the Potency read?
**A.** inconclusive: 19.9 µM [inhibitor, partial curve]

**Q.** How did the Potency turn out when `COc1cc(NC(=O)COC(=O)CNC(=O)c2ccc(C)cc2)c(C)cc1[N+](=O)[O-]` was run?
**A.** inactive

**Q.** For `COc1ccc(NC(=S)N(CCCN2CCC(C)CC2)Cc2cccs2)cc1Cl`, which Potency is on record?
**A.** active: 15.8 µM

**Q.** How did the Potency turn out when `NCCS` was run?
**A.** active: 15.8 µM

**Q.** `O=C(O)c1cc(Br)ccc1NN=C1CCCCC1` was tested. Which Potency did it give?
**A.** inactive

**Q.** `COc1ccc(N2CSC3=C(C#N)C(c4cccs4)CC(=O)N3C2)cc1` (stereo unspecified) was tested. Which Potency did it give?
**A.** active: 0.5 µM

**Q.** Which activity, negative = inhibition does the source give for `CCOC(=O)CCN1C(=O)[C@H]2[C@H]3[C@H](O)[C@H](O)C/C(=N/NC(=O)OCc4ccccc4)[C@@H]3CC[C@@H]2C1=O` here?
**A.** inactive: 0.353% [at 12.9 µM]

**Q.** With `CCc1nnc(NCn2nc(C)cc2C)s1` as the molecule, how does the Potency read?
**A.** inconclusive: 39.8 µM [inhibitor, partial curve, poor fit]

**Q.** With `CCN(CC)C(=O)C(=O)Nc1ccc(F)c(Cl)c1` as the molecule, how does the Potency read?
**A.** inactive

**Q.** With `C=CCC1=C/C(=C\c2c(N)n3nc(CC(=O)N4CCOCC4)sc3nc2=O)C=C(OC)C1=O` as the molecule, how does the Potency read?
**A.** inconclusive: 14.1 µM [inhibitor, partial curve]

**Q.** `O=C(CNC(=O)c1ccccc1O)N/N=C/c1ccccn1` was tested. Which Potency did it give?
**A.** inconclusive: 50 µM [inhibitor, partial curve, poor fit]

**Q.** Which Potency does the source give for `CCN1CCN(CC(=O)Nc2ccc(C)c(Br)c2)CC1` here?
**A.** inconclusive: 14.1 µM [inhibitor, partial curve]

**Q.** For `CCCNC(=S)N1CCN(CC)CC1`, which Potency is on record?
**A.** inconclusive: 6.29 µM [inhibitor, partial curve]

**Q.** `Cc1ccccc1C(=O)NC(=S)N(C)CCc1ccccn1` was tested. Which Potency did it give?
**A.** inconclusive: 15.8 µM [inhibitor, partial curve]

**Q.** Which Potency does the source give for `COc1ccc(C(=O)c2nc3c(n2O)CCCCC3)cc1` here?
**A.** inconclusive: 15.8 µM [inhibitor, single point]

**Q.** `COc1ccc(/C=N/n2cnn(Cc3ccccc3Cl)c2=S)cc1` was tested. Which Potency did it give?
**A.** inconclusive: 15.8 µM [inhibitor, single point]

**Q.** `Cc1cccc(C)c1NC(=O)CSCC(=O)c1ccc(O)c(O)c1` was tested. Which Potency did it give?
**A.** inconclusive: 3.15 µM [inhibitor, partial curve]

**Q.** How did the Potency turn out when `CCCC(C)C(=O)Nc1ccc(S(=O)(=O)Nc2nccs2)cc1` (stereo unspecified) was run?
**A.** inconclusive: 15.8 µM [inhibitor, partial curve]

**Q.** For `O=c1cc(CO)oc(C(Nc2ccccn2)c2cccc(F)c2)c1O` (stereo unspecified), which Potency is on record?
**A.** inconclusive: 14.1 µM [inhibitor, partial curve]

**Q.** How did the Potency turn out when `CC(=O)Nc1sc(N/N=C/c2ccc(N(C)C)cc2)nc1-c1ccc(C)cc1` was run?
**A.** inactive

**Q.** With `CC(C)c1cc(=O)n2c(nc3ccccc32)[nH]1` as the molecule, how does the Potency read?
**A.** inconclusive: 4.47 µM [inhibitor, partial curve]

**Q.** Which Potency does the source give for `CCn1cc(C=C2C(=O)NC(=O)NC2=O)c2ccccc21` here?
**A.** inactive

**Q.** `Cn1c(=O)[nH]c(=O)c2c1nc(N/N=C/C(Br)=C/c1ccccc1)n2CCO` was tested. Which Potency did it give?
**A.** inconclusive: 17.7 µM [inhibitor, partial curve]

**Q.** `COc1ccc(NC2=CC(=O)CC(C)(C)C2)cc1OC` was tested. Which Potency did it give?
**A.** inconclusive: 17.7 µM [inhibitor, partial curve]

**Q.** Which Potency does the source give for `NS(=O)(=O)c1ccc(NC(=S)NC(=O)c2cccs2)cc1` here?
**A.** active: 17.7 µM

**Q.** `COc1ccc(-c2coc3cc(O)ccc3c2=O)c(O)c1O` was tested. Which Potency did it give?
**A.** active: 17.7 µM

**Q.** How did the Potency turn out when `CN(C[C@H](Cc1ccccc1)N(C[C@@H](CC1CCCCC1)N(CCc1ccccc1)N=O)N=O)N=O` was run?
**A.** inconclusive: 17.7 µM [inhibitor, single point]

**Q.** `Cc1ccccc1-n1c(-c2ccncc2)n[nH]c1=S` was tested. Which Potency did it give?
**A.** inconclusive: 11.2 µM [inhibitor, partial curve]

**Q.** For `CC(C)C(=O)Nc1cc(=O)[nH]c2ncnn12`, which Potency is on record?
**A.** inconclusive: 25.1 µM [inhibitor, partial curve]

**Q.** Which Potency does the source give for `Oc1ccc([C@@H]2CNCCc3c2cc(O)c(O)c3Cl)cc1` here?
**A.** inconclusive: 25.1 µM [inhibitor, partial curve]

**Q.** How did the Potency turn out when `COc1cc(CNC2CCCCCCC2)c(Br)cc1OCCO` was run?
**A.** inconclusive: 28.2 µM [inhibitor, single point]

**Q.** For `COC(=O)C1=C(C)OC(N)=C(C#N)C1c1cc(OC)c(OCC(N)=O)cc1Cl` (stereo unspecified), which Potency is on record?
**A.** inconclusive: 15.8 µM [inhibitor, single point]

**Q.** Which Potency does the source give for `CCOc1ccc(N=C(NN)c2ccc3ccccc3n2)cc1` here?
**A.** inconclusive: 15.8 µM [inhibitor, single point]

**Q.** With `O=[N+]([O-])c1cc(C(F)(F)F)cc([N+](=O)[O-])c1Sc1n[nH]c(C(F)(F)F)n1` as the molecule, how does the Potency read?
**A.** active: 17.7 µM

**Q.** With `COc1ccc(C2CC(C)(c3ccc(OC)cc3)Nc3ccccc3N2)cc1` (stereo unspecified) as the molecule, how does the Potency read?
**A.** inconclusive: 15.8 µM [inhibitor, single point]

**Q.** For `COc1ccc(C2C(Oc3ccccc3)C(=O)N2c2cc(C)ccc2C)cc1OC` (stereo unspecified), which Potency is on record?
**A.** inactive

**Q.** Which Potency does the source give for `CN=c1scc(-c2ccccc2F)n1/N=C/c1ccc(O)c(O)c1O` here?
**A.** active: 7.92 µM

**Q.** For `COc1ccc(-c2cc(C(=O)OCC(=O)Nc3ccc4c(c3)OCO4)c3ccccc3n2)cc1`, which Potency is on record?
**A.** inactive

**Q.** How did the Potency turn out when `C/C(=C/C=C/[C@@H](C)C(=O)O)[C@H]1CN[C@H](C(=O)O)[C@H]1CC(=O)O` was run?
**A.** inconclusive: 17.7 µM [inhibitor, partial curve]

**Q.** With `Cc1ccc(S(=O)(=O)c2cc(C#N)c(=O)[nH]c2N)cc1` as the molecule, how does the Potency read?
**A.** inconclusive: 22.3 µM [activator, partial curve]

**Q.** `COc1ccc(C(=O)N/N=C\c2coc3ccc(Cl)cc3c2=O)cc1` was tested. Which Potency did it give?
**A.** inactive

**Q.** `CC(=O)c1sc(N/N=C2\CC3CC2C(C)C3(C)C)nc1C` (stereo unspecified) was tested. Which Potency did it give?
**A.** inconclusive: 19.9 µM [inhibitor, single point]

**Q.** For `Cc1cc(N)ccc1N1CCCC1`, which Potency is on record?
**A.** inconclusive: 22.3 µM [inhibitor, partial curve]

**Q.** How did the Potency turn out when `Cc1ccc(C)c(/C=C(\C(=O)O)c2ccc(S(=O)(=O)N3CCCCC3)s2)c1` was run?
**A.** inactive

**Q.** How did the Potency turn out when `Cc1c(N=NC2=C(O)CCCC2=O)c(=O)n(-c2ccccc2)n1C` was run?
**A.** inconclusive: 14.1 µM [inhibitor, partial curve]

**Q.** For `CCOc1ccc2ncc(S(=O)(=O)c3ccc(C)cc3)c(N3CCC4(CC3)OCCO4)c2c1`, which Potency is on record?
**A.** inactive

**Q.** Which Potency does the source give for `CCCn1cnc2cc(NCc3ccccn3)ccc21` here?
**A.** inconclusive: 11.2 µM [inhibitor, partial curve]

**Q.** Which Potency does the source give for `COC(=O)[C@@H](N)Cc1ccc(O)c(O)c1` here?
**A.** inconclusive: 6.29 µM [inhibitor, partial curve]

**Q.** How did the Potency turn out when `COC(=O)c1cc(C)nc2c1C(=O)C(=O)C=C2N1CCOCC1` was run?
**A.** active: 0.251 µM

**Q.** `COc1ccc(-c2nc3c(Br)c(N)c(Br)cc3o2)cc1` was tested. Which Potency did it give?
**A.** inconclusive: 6.29 µM [inhibitor, partial curve]

**Q.** With `O=C(OCC(=O)c1c[nH]c2ccccc12)c1cc2ccccc2cc1O` as the molecule, how does the Potency read?
**A.** inconclusive: 17.7 µM [inhibitor, single point]

**Q.** With `Cc1ccc(NC(=O)COC(=O)CNC(=O)c2ccc3ccccc3c2)c([N+](=O)[O-])c1` as the molecule, how does the Potency read?
**A.** inactive

**Q.** How did the Potency turn out when `O=[N+]([O-])c1cccc(C2Nc3cccc4cccc(c34)N2)c1` was run?
**A.** inconclusive: 19.9 µM [inhibitor, partial curve]

**Q.** With `CC1(C)CC(=O)C2=C(C1)OC(N)=C(C#N)C21CCC2(CC1)OCCO2` as the molecule, how does the Potency read?
**A.** inconclusive: 31.6 µM [inhibitor, single point]

**Q.** For `CC1=C(C(=O)OC(C)C)C(c2ccncc2)n2ncnc2N1` (stereo unspecified), which Potency is on record?
**A.** inactive

**Q.** How did the Potency turn out when `COc1ccc(/C(=N/Nc2ncnc3ccccc23)C(=O)O)cc1` was run?
**A.** inconclusive: 11.2 µM [inhibitor, partial curve]

**Q.** For `COCCn1c(NC(=S)NC(=O)C2CC2)cc(=O)[nH]c1=O`, which Potency is on record?
**A.** active: 7.06 µM

**Q.** How did the Potency turn out when `CC(=O)c1cccc(NC(=O)c2cc(-c3ccc(C)cc3)on2)c1` was run?
**A.** inactive

**Q.** `COCCNCCOc1ccccc1-c1ccccc1` was tested. Which Potency did it give?
**A.** inconclusive: 15.8 µM [inhibitor, single point]

**Q.** Which Potency does the source give for `CC1(C)[C@@H](O)CC[C@]2(C)[C@H]3C(=O)C=C4[C@@H]5C[C@@](C)(C(=O)O)CC[C@]5(C)CC[C@@]4(C)[C@]3(C)CC[C@@H]12` here?
**A.** inconclusive: 15.8 µM [activator, single point]
